# Assay results as given in PubChem BioAssay (NCATS).
# Inconclusive results, whose numbers are uncertain, are shown with a selection of clear calls. For some assays here: No potency is given beside an inconclusive call; the fits are too rough. Active and inactive are the calls of the source. Unless noted, the call rests on the fitted dose curve; in most records, active means well fitted curve in the direction sought with a large enough effect; inconclusive means small, poorly fitted or top-dose-only effect, or another doubt; inactive means no such curve, though single readings can be large; an effect the other way counts as inactive or inconclusive.
# Experiments:
# [1] = test system: Nanoluciferase (engineered Oplophorus gracilirostris luciferase); assay: Primary Nanoluciferase (NLuc) qHTS assay for identification of artifact compounds. (AID 1845222);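 further: NLuc secreted into diluted conditioned medium of S16 cells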; further: potency means the concentration at half of the fitted maximal effect
# In short: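 qHTS format, against NLuc in S16 cell-conditioned medium. Nano-Glo substrate 1:100 was added after 15 min at room temperature. Luminescence was taken after a further 5 min.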
# [2] = qHTS Assay for Identifying Gametocytocidal Compounds (AID 743244); further: potency means the concentration at half of the fitted maximal effect;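 on max response: on the % scale 0 is the no-effect control and ±100 the full control effect; actives lower the fluorescent signal which means gametocytes are killed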; conditions: P. falciparum 3D7 stage III-V gametocytes, alamarBlue, 72 h; max response: active compounds read low
# In short: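 Late gametocytes (III–V), P. falciparum 3D7; 72 h drug, then 24 h alamarBlue; resazurin reduction read by fluorescence.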
# [3] = qHTS of pediatric cancer cell lines to identify multiple opportunities for drug repurposing: Primary screen for NB1643 cells (AID 1347099);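 further: plate controls were DMSO neutral control for no effect and bortezomib positive control for full effect; nearly all actives have a fitted effect of over 50% in size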
# In short: (§1)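 Readout: CellTiter-Glo luminescence, 48 h treatment. Controls DMSO (neutral) and bortezomib 2.3 µM final (positive). Potency and efficacy taken from primary-screen concentration-response curves.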
# [4] = test system: Zika virus NS2B-NS3 protease; assay: Primary screen GU AMC qHTS for Zika virus inhibitors (AID 1347154); further: potency means the concentration at half of the fitted maximal effect; nearly all actives have a fitted effect of over 70% in size
# In short: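 Unlinked Zika NS2B hydrophilic domain–NS3 protease complex at 25 nM in 10 mM Tris-HCl pH 8.0, 0.01% Tween 20, with an AMC peptide substrate. Fluorescence change (340/450 nm) over 15 min at room temperature, normalized to controls, fitted to 4-parameter Hill.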
# [5] = qHTS of pediatric cancer cell lines to identify multiple opportunities for drug repurposing: Primary screen for Saos-2 cells (AID 1347097); conditions: Saos-2 viability, CellTiter-Glo ATP luminescence, 48 h; activity change, negative = cytotoxic: at 46 µM (top of the series); further: potency means the concentration at half of the fitted maximal effect; nearly all actives have a fitted effect of over 40% in size
# In short: as §1
# CP335 = assay: qHTS profiling for inhibitors of Plasmodium falciparum proliferation (AID 504749); further: nearly all actives have a fitted effect of over 60% in size; further: potency means the concentration at half of the fitted maximal effect; conditions: P. falciparum in erythrocytes, SYBR Green DNA, 72 h; series mostly up to 28.7 µM
# In short: (§2)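 P. falciparum-infected erythrocytes (0.3% parasitemia, 2.5% hematocrit) incubated with compound 72 h at 37 C, 5% CO2. Parasite DNA detected by SYBR Green after lysis, overnight at room temperature; normalised to 0.29 uM artemisinin and DMSO.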
# W2 = assay: as above; conditions: P. falciparum in erythrocytes, SYBR Green DNA, 72 h; series mostly up to 28.7 µM
# In short: as §2
# [6] = qHTS of pediatric cancer cell lines to identify multiple opportunities for drug repurposing: Primary screen for RD cells (AID 1347104); further: nearly all actives have a fitted effect of over 55% in size; further: potency means the concentration at half of the fitted maximal effect;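 on activity change, negative = cytotoxic: plate controls were DMSO for no effect and bortezomib for full effect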
# In short: as §1
# [7] = qHTS of pediatric cancer cell lines to identify multiple opportunities for drug repurposing: Primary screen for MG 63 (6-TG R) cells (AID 1347105); conditions: MG 63 (6-TG R) viability, CellTiter-Glo, 48 h; activity change, negative = cytotoxic: at 46 µM (top of the series) unless noted; further: nearly all actives have a fitted effect of over 50% in size; further: potency means the concentration at half of the fitted maximal effect; on activity change, negative = cytotoxic: on the % scale 0 is the no-effect control and ±100 the full control effect
# In short: as §1
# [8] = qHTS of pediatric cancer cell lines to identify multiple opportunities for drug repurposing: Primary screen for Rh30 cells (AID 1347107); further: on the % scale 0 is the no-effect control and ±100 the full control effect; nearly all actives have a fitted effect of over 75% in size
# In short: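 Viability after 48 h compound treatment at 37C, 500-1,000 cells/well, read as ATP luminescence with CellTiter-Glo. Primary screens used 11-point (MIPE, 0.78 nM-46 µM) or 8-point (NPC, 0.59 nM-46 µM) final concentrations; follow-up screens used 11-point dilutions.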
# [9] = qHTS of pediatric cancer cell lines to identify multiple opportunities for drug repurposing: Primary screen for SK-N-SH cells (AID 1347098); conditions: SK-N-SH viability, CellTiter-Glo luminescence, 48 h; activity change, negative = cytotoxic: at 57 µM (top of the series); further: nearly all actives have a fitted effect of over 65% in size; further: potency means the concentration at half of the fitted maximal effect; on activity change, negative = cytotoxic: on the % scale 0 is the no-effect control and ±100 the full control effect
# In short: (§3)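 Cells (500-1,000/well) rested 5 h, then received compounds for 48 h; metabolically active cells were measured by CellTiter-Glo luminescence. Final concentrations spanned up to 46 µM (MIPE, 11-point) or 0.59 nM-46 µM (NPC, 8-point) in primary screens, 11-point in follow-ups.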
# [10] = qHTS of pediatric cancer cell lines to identify multiple opportunities for drug repurposing: Primary screen for BT-37 cells (AID 1347094); further: potency means the concentration at half of the fitted maximal effect;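 on activity change, negative = cytotoxic: plate controls were DMSO for no effect and bortezomib for full effect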
# In short: as §1
# [11] = qHTS of pediatric cancer cell lines to identify multiple opportunities for drug repurposing: Primary screen for OHS-50 cells (AID 1347103); further: nearly all actives have a fitted effect of over 40% in size; further: potency means the concentration at half of the fitted maximal effect;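 on activity change, negative = cytotoxic: plate controls were DMSO neutral control for no effect and bortezomib positive control for full effect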
# In short: as §3
# [12] = A High-Content qHTS Against Drug Library for the Identification of Small Molecules that Inhibit DYT1 Early Onset Primary Dystonia-Associated Cell Pathology (AID 1645839; calls by dose curve; further: potency means the concentration at half of the fitted maximal effect)
# In short: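 Flp-In T-REx 293 cells with tetracycline-inducible EGFP-delE hTOR1A (WT EGFP-hTOR1A as reference), 800 cells/well; compound added with tetracycline, 48 h at 37 C. Fixed, permeabilized cells imaged; %pathology (punctate TorsinA) primary, cell count counterscreen.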
# [13] = NS1 protein of Zika virus - qHTS assay to identify small molecule inhibitors in human HEK 293 cells (AID 1347053);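 further: plate controls were infected untreated cells for no effect and uninfected cells for full effect; nearly all actives have a fitted effect of over 55% in size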
# In short: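 HEK 293; 20 h pre-culture, 37 C/5% CO2; cpd 1 h pre-infection; ZIKV MR766, MOI = 0.5, 24 h, 37 C; TR-FRET NS1 readout (two anti-NS1 Abs); norm. to no-virus vs infected.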
# [14] = P-glycoprotein substrates identified in KB-3-1 adenocarcinoma cell line, qHTS therapeutic library screen (AID 1346986); conditions: KB-3-1 parental cells viability, CellTiter-Glo, 72 h;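 further: potency means the concentration at half of the fitted maximal effect; potency is for cytotoxicity meaning loss of cell viability; nearly all actives have a fitted effect of over 60% in size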
# In short: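 KB-3-1 parental and colchicine-selected P-gp-overexpressing KB-8-5-11 cells (colchicine omitted during assay), 500 cells/well, dosed in dose-response for 72 h at 37 °C; CellTiter-Glo luminescence. Cytotoxic: curve class -1.1 to -2.4, max response >50%, AC50 < 10 uM.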
# [15] = qHTS of pediatric cancer cell lines to identify multiple opportunities for drug repurposing: Primary screen for A673 cells (AID 1347092); conditions: A673 Ewing sarcoma viability, CellTiter-Glo ATP luminescence, 48 h; activity change, negative = cytotoxic: at 46 µM (top of the series); further: potency means the concentration at half of the fitted maximal effect; nearly all actives have a fitted effect of over 45% in size
# In short: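 A673 cells (500-1,000 cells/well) were treated 48 hours at 37 degrees C with compounds at 11-point (0.78 nM to 46 µM) or 8-point (0.59 nM to 46 µM) dilutions. Viability read by CellTiter-Glo luminescence; concentration-response curves fitted.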
# MKL-2 = assay: qHTS assay to identify novel small-molecules to repurpose for Merkel cell carcinoma treatment (AID 1296009); conditions: MCC and control cell lines, CellTiter-Glo viability, 72 h; activity change, negative = cytotoxicity: at 46 µM (top of the series); further: potency means the concentration at half of the fitted maximal effect; nearly all actives have a fitted effect of over 60% in size
# In short: (§4)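 Cells were treated for 72 hr at 37 degree celsius with compounds in 8- or 11-point dose response. Viability was read by CellTiter-Glo luminescence, normalized to no-cell (cytotoxicity) and DMSO controls.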
# UISO = assay: as above; conditions: MCC and control cell lines, CellTiter-Glo viability, 72 h; activity change, negative = cytotoxicity: at 46 µM (top of the series)
# In short: as §4
# WaGa = assay: as above; conditions: MCC and control cell lines, CellTiter-Glo viability, 72 h; series mostly up to 46 µM
# In short: as §4
# Tags describe the fitted curve by direction and shape.
smiles,measurement,setting,value
O=C(CNC(=O)c1cccc(C(F)(F)F)c1)N[C@@H]1CCN(Cc2ccc(Cl)cc2)C1,Potency,[1],inactive
CN=C(NC#N)NCCSCc1csc(N=C(N)N)n1,max response,[2],inactive: 5.67%
same,Potency,[3],inactive
CN(C)[C@@H]1C(=O)C(C(N)=O)=C(O)[C@@]2(O)C(=O)C3=C(O)c4c(O)ccc(Cl)c4[C@@H](O)[C@H]3C[C@@H]12,Potency,[4],"inconclusive [inhibitor, single point]"
CC1COC(Nc2ccc3ncnc(Nc4ccc(OCc5nccs5)c(Cl)c4)c3c2)=N1 (stereo unspecified),Potency,[1],"inconclusive [inhibitor, single point]"
Cn1nccc1Nc1nccc(-c2ccn([C@H](CO)c3ccc(Cl)c(F)c3)c(=O)c2)n1,Potency,[1],"inconclusive [inhibitor, partial curve, poor fit]"
NC(=O)c1ccccc1O,max response,[2],inactive: -5.71%
same,Potency,[5],"inconclusive [cytotoxic, partial curve, poor fit]"
same,Potency,[4],"inconclusive [inhibitor, partial curve]"
same,Potency,CP335,inactive
same,Potency,W2,inactive
CCCCC(CC)COC(=O)c1ccccc1O (stereo unspecified),Potency,[6],inactive
same,Potency,CP335,inactive
CN(C)C(=O)CNC(=O)Cc1ccccc1,Potency,[7],"inconclusive [cytotoxic, full curve, poor fit]"
same,Potency,[8],inactive
C[C@@H](O)[C@H]1C(=O)N2C(C(=O)O)=C(SCCN=CN)C[C@H]12,Potency,[5],"inconclusive [cytotoxic, partial curve]"
same,Potency,[9],inactive
NCC(=O)CCC(=O)O,Potency,[10],inactive
same,Potency,[11],inactive
same,Potency,[7],inactive
same,Potency,[12],inactive
same,Potency,CP335,"inconclusive [inhibitor, single point]"
same,Potency,W2,"inconclusive [inhibitor, single point]"
CCOC(=O)c1ccc(OCCN2C[C@H](O)[C@@H](O)[C@H](O)[C@H]2CO)cc1,Potency,[13],inactive
same,Potency,[5],"inconclusive [cytotoxic, single point]"
same,Potency,[9],inactive
NC(N)=NC(=O)Cc1c(Cl)cccc1Cl,Potency,[11],"inconclusive [cytotoxic, partial curve]"
same,Potency,[6],inactive
same,Potency,CP335,active: 9.53 µM
same,Potency,W2,active: 6.75 µM
C[C@]12CC[C@H]3[C@@H](CCC4=CC(=O)CC[C@@]43C)[C@@H]1CC[C@@H]2C(=O)CO,Potency,[11],"inconclusive [cytotoxic, single point]"
C=CCSCC1Nc2cc(Cl)c(S(N)(=O)=O)cc2S(=O)(=O)N1 (stereo unspecified),Potency,[12],inactive
same,Potency,W2,"inconclusive [activator, full curve, poor fit]"
CCN[C@@H]1C[C@H](N)[C@@H](OC2OC(CN)=CCC2N)[C@H](O)[C@H]1O[C@H]1OC[C@](C)(O)[C@H](NC)[C@H]1O (stereo partly specified),"activity change, negative = cytotoxic",[10],inactive: 5.98% [at 0.745 µM]
same,"activity change, negative = cytotoxic",[11],inactive: 0.649% [at 0.73 µM]
CCOc1cn(-c2ccc(F)cc2C)nc1C(=O)Nc1ccc(Oc2ccnc3cc(OC)c(OC)cc23)c(F)c1,Potency,[14],"inconclusive [inhibitor, single point]"
COc1ccc(C2(O)c3ccccc3NC(=O)C2O)cc1 (stereo unspecified),Potency,[1],inactive
Cc1cccc(C)c1NC(=O)CN1CCCCCC1,Potency,[9],inactive
same,Potency,[6],inactive
same,Potency,W2,"inconclusive [inhibitor, single point]"
COc1cc(NS(=O)(=O)c2ccc(N)cc2)ncn1,max response,[2],inactive: -7.94%
same,Potency,[8],inactive
CC1(C)Oc2ccc(C#N)cc2[C@@H](N2CCCC2=O)[C@@H]1O,Potency,[5],"inconclusive [cytotoxic, partial curve, poor fit]"
Nc1nccc(-c2c(-c3ccc(F)cc3)ncn2C2CCCCC2)n1,Potency,[14],"inconclusive [inhibitor, partial curve, poor fit]"
COCCc1ccc(OCC2CO2)cc1 (stereo unspecified),Potency,[7],inactive
c1cc(CN2CCCCC2)cc(OCCCNc2nc3ccccc3s2)c1,Potency,[2],"inconclusive [inhibitor, single point]"
same,Potency,[13],inactive
same,Potency,[15],"inconclusive [cytotoxic, single point]"
same,Potency,[10],"inconclusive [cytotoxic, single point]"
same,Potency,[9],active: 24.4 µM
same,Potency,[6],"inconclusive [cytotoxic, single point]"
same,Potency,[12],"inconclusive [inhibitor, partial curve, poor fit]"
same,Potency,CP335,"inconclusive [inhibitor, partial curve]"
same,Potency,MKL-2,"inconclusive [inhibitor, partial curve]"
same,Potency,UISO,"inconclusive [inhibitor, single point]"
same,Potency,WaGa,"inconclusive [inhibitor, partial curve]"
